Data from paper PMC9911399, “Two distinct binding modes provide the RNA-binding protein RbFox with extraordinary sequence specificity”.
Positions count from the first letter of the chain named. Some of the results follow.

T1: RBFOX1 RRM RbFoxmut (Fox-RRM*) (Homo sapiens, UniProt Q9NWB1 109-208, R118D;E147R;N151S;E152T)
T1 sequence: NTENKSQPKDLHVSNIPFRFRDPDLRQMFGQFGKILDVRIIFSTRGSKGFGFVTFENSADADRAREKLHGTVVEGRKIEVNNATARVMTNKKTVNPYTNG

B1: CACUGUA (DNA:RNA)
RNA: GGGAGACCGGAAUUCAGAUUGUCCCACUGUAUUAAAUCCCGUCGUAGCCACCA
DNA 1: CAATCTGAATTCCGGTCTCCC
DNA 2: TGGTGGCTACGACGGGATT
B2: GCUGUCG (DNA:RNA)
RNA: GGGAGACCGGAAUUCAGAUUGUCCGCUGUCGUUAAAUCCCGUCGUAGCCACCA
DNA 1: CAATCTGAATTCCGGTCTCCC
DNA 2: TGGTGGCTACGACGGGATT
B3: CAAAAUG (DNA:RNA)
RNA: B1 RNA with C27A, U28A, G29A, A31G
DNA 1: CAATCTGAATTCCGGTCTCCC
DNA 2: TGGTGGCTACGACGGGATT
B4: CGUUACA (DNA:RNA)
RNA: B1 RNA with A26G, C27U, G29A, U30C
DNA 1: CAATCTGAATTCCGGTCTCCC
DNA 2: TGGTGGCTACGACGGGATT
B5: GUUUUUU (DNA:RNA)
RNA: B2 RNA with C26U, G28U, C30U, G31U
DNA 1: CAATCTGAATTCCGGTCTCCC
DNA 2: TGGTGGCTACGACGGGATT
B6: CCUGUGU (DNA:RNA)
RNA: B2 RNA with G25C, C30G, G31U
DNA 1: CAATCTGAATTCCGGTCTCCC
DNA 2: TGGTGGCTACGACGGGATT
B7: AGGUCUA (DNA:RNA)
RNA: B1 RNA with C25A, A26G, C27G, G29C
DNA 1: CAATCTGAATTCCGGTCTCCC
DNA 2: TGGTGGCTACGACGGGATT
B8: ACCCUCA (DNA:RNA)
RNA: B2 RNA with G25A, U27C, G28C, G31A
DNA 1: CAATCTGAATTCCGGTCTCCC
DNA 2: TGGTGGCTACGACGGGATT
B9: GCCGUUG (DNA:RNA)
RNA: B2 RNA with U27C, C30U
DNA 1: CAATCTGAATTCCGGTCTCCC
DNA 2: TGGTGGCTACGACGGGATT
B10: CCUCACG (DNA:RNA)
RNA: B2 RNA with G25C, G28C, U29A
DNA 1: CAATCTGAATTCCGGTCTCCC
DNA 2: TGGTGGCTACGACGGGATT
B11: CAGUCUG (DNA:RNA)
RNA: B1 RNA with C27G, G29C, A31G
DNA 1: CAATCTGAATTCCGGTCTCCC
DNA 2: TGGTGGCTACGACGGGATT
B12: CCGAGCA (DNA:RNA)
RNA: B1 RNA with A26C, C27G, U28A, U30C
DNA 1: CAATCTGAATTCCGGTCTCCC
DNA 2: TGGTGGCTACGACGGGATT
B13: AUGAUAA (DNA:RNA)
RNA: B1 RNA with C25A, A26U, C27G, U28A, G29U, U30A
DNA 1: CAATCTGAATTCCGGTCTCCC
DNA 2: TGGTGGCTACGACGGGATT
B14: UAGCGGA (DNA:RNA)
RNA: B1 RNA with C25U, C27G, U28C, U30G
DNA 1: CAATCTGAATTCCGGTCTCCC
DNA 2: TGGTGGCTACGACGGGATT
B15: UGUAGCA (DNA:RNA)
RNA: B1 RNA with C25U, A26G, C27U, U28A, U30C
DNA 1: CAATCTGAATTCCGGTCTCCC
DNA 2: TGGTGGCTACGACGGGATT
B16: UGUAAGG (DNA:RNA)
RNA: B2 RNA with G25U, C26G, G28A, U29A, C30G
DNA 1: CAATCTGAATTCCGGTCTCCC
DNA 2: TGGTGGCTACGACGGGATT
B17: UGAGCCU (DNA:RNA)
RNA: B2 RNA with G25U, C26G, U27A, U29C, G31U
DNA 1: CAATCTGAATTCCGGTCTCCC
DNA 2: TGGTGGCTACGACGGGATT
B18: GGACUAG (DNA:RNA)
RNA: B2 RNA with C26G, U27A, G28C, C30A
DNA 1: CAATCTGAATTCCGGTCTCCC
DNA 2: TGGTGGCTACGACGGGATT
B19: GUCCAGC (DNA:RNA)
RNA: B1 RNA with C25G, A26U, U28C, G29A, U30G, A31C
DNA 1: CAATCTGAATTCCGGTCTCCC
DNA 2: TGGTGGCTACGACGGGATT
B20: GGUAUUA (DNA:RNA)
RNA: B2 RNA with C26G, G28A, C30U, G31A
DNA 1: CAATCTGAATTCCGGTCTCCC
DNA 2: TGGTGGCTACGACGGGATT
B21: UCAGCUG (DNA:RNA)
RNA: B2 RNA with G25U, U27A, U29C, C30U
DNA 1: CAATCTGAATTCCGGTCTCCC
DNA 2: TGGTGGCTACGACGGGATT
B22: GAACUGU (DNA:RNA)
RNA: B2 RNA with C26A, U27A, G28C, C30G, G31U
DNA 1: CAATCTGAATTCCGGTCTCCC
DNA 2: TGGTGGCTACGACGGGATT
B23: CGGACAU (DNA:RNA)
RNA: B1 RNA with A26G, C27G, U28A, G29C, U30A, A31U
DNA 1: CAATCTGAATTCCGGTCTCCC
DNA 2: TGGTGGCTACGACGGGATT
B24: UAUGGGA (DNA:RNA)
RNA: B1 RNA with C25U, C27U, U28G, U30G
DNA 1: CAATCTGAATTCCGGTCTCCC
DNA 2: TGGTGGCTACGACGGGATT
B25: GGUGGCG (DNA:RNA)
RNA: B2 RNA with C26G, U29G
DNA 1: CAATCTGAATTCCGGTCTCCC
DNA 2: TGGTGGCTACGACGGGATT
B26: UUCCAUU (DNA:RNA)
RNA: B1 RNA with C25U, A26U, U28C, G29A, A31U
DNA 1: CAATCTGAATTCCGGTCTCCC
DNA 2: TGGTGGCTACGACGGGATT
B27: UGCCCGC (DNA:RNA)
RNA: B1 RNA with C25U, A26G, U28C, G29C, U30G, A31C
DNA 1: CAATCTGAATTCCGGTCTCCC
DNA 2: TGGTGGCTACGACGGGATT
B28: AAUCCGU (DNA:RNA)
RNA: B1 RNA with C25A, C27U, U28C, G29C, U30G, A31U
DNA 1: CAATCTGAATTCCGGTCTCCC
DNA 2: TGGTGGCTACGACGGGATT
B29: UUUCCGU (DNA:RNA)
RNA: B2 RNA with G25U, C26U, G28C, U29C, C30G, G31U
DNA 1: CAATCTGAATTCCGGTCTCCC
DNA 2: TGGTGGCTACGACGGGATT
B30: CCCAACG (DNA:RNA)
RNA: B2 RNA with G25C, U27C, G28A, U29A
DNA 1: CAATCTGAATTCCGGTCTCCC
DNA 2: TGGTGGCTACGACGGGATT
B31: GUGGGGC (DNA:RNA)
RNA: B2 RNA with C26U, U27G, U29G, C30G, G31C
DNA 1: CAATCTGAATTCCGGTCTCCC
DNA 2: TGGTGGCTACGACGGGATT

molecular target: T1, RBFOX1 RRM RbFoxmut (Fox-RRM*); experiment: EMSA; HiTS-Eq, 1 nM pool, 10 min; buffer printed only for the single-RNA assays: 10 mM Tris pH 7.5, 150 mM NaCl, 3.4 mM EDTA, 0.001% NP-40, 30 C; settings: tags: His6 N-terminal (pET28a); label: 5' 32P
Procedure, shortened: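 Purified wild-type or mutant RbFox RRM at increasing concentrations was equilibrated with 1 nM of 5′-radiolabelled RNA carrying 7 randomized nucleotides for 10 min in 50 µL. Unbound RNA was separated by 8% native PAGE and sequenced. Relative association constants came from read-count changes of each RNA species compared with the control reaction, normalised to the cognate motif.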

Row | Binder | binding signal
1 | B1 | 0.209 KA relative to UGCAUGU
2 | B2 | 0.11 KA relative to UGCAUGU
3 | B3 | 0.116 KA relative to UGCAUGU
4 | B4 | 0.0878 KA relative to UGCAUGU
5 | B5 | 0.0932 KA relative to UGCAUGU
6 | B6 | 0.142 KA relative to UGCAUGU
7 | B7 | 0.0884 KA relative to UGCAUGU
8 | B8 | 0.108 KA relative to UGCAUGU
9 | B9 | 0.103 KA relative to UGCAUGU
10 | B10 | 0.102 KA relative to UGCAUGU
11 | B11 | 0.0891 KA relative to UGCAUGU
12 | B12 | 0.128 KA relative to UGCAUGU
13 | B13 | 0.111 KA relative to UGCAUGU
14 | B14 | 0.0808 KA relative to UGCAUGU
15 | B15 | 0.172 KA relative to UGCAUGU
16 | B16 | 0.0691 KA relative to UGCAUGU

Row | Binder | binding signal
17 | B17 | 0.081 KA relative to UGCAUGU
18 | B18 | 0.0756 KA relative to UGCAUGU
19 | B19 | 0.114 KA relative to UGCAUGU
20 | B20 | 0.107 KA relative to UGCAUGU
21 | B21 | 0.102 KA relative to UGCAUGU
22 | B22 | 0.0987 KA relative to UGCAUGU
23 | B23 | 0.0704 KA relative to UGCAUGU
24 | B24 | 0.0705 KA relative to UGCAUGU
25 | B25 | 0.145 KA relative to UGCAUGU
26 | B26 | 0.0945 KA relative to UGCAUGU
27 | B27 | 0.107 KA relative to UGCAUGU
28 | B28 | 0.0653 KA relative to UGCAUGU
29 | B29 | 0.0848 KA relative to UGCAUGU
30 | B30 | 0.0833 KA relative to UGCAUGU
31 | B31 | 0.092 KA relative to UGCAUGU
